Results published in the RNAGym collection of RNA variant scans (doi:10.1073/pnas.2313332121).
This sample is rich in variants without activity.

B1: TPR 5TU (parent)
chain: GGAUCUUCUCGAUCUAACAAAAAAGACAAAUCUGCCACAAAGCUUGAGAGCAUCUUCGGAUGCAGAGGCGGCAGCCUUCGGUGGCGCGAUAGCGCCAACGUUCUCAACUAUGACACGCAAAACGCGUGCUCCGUUGAAUGGAGUUUAUCAUG

Variants of: B1
Experiment: polymerase ribozyme fitness, log enrichment relative to wild type (log ratio); higher = more active; in vitro selection for triplet polymerase activity
In short: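 Mutant libraries of each subunit of a heterodimeric triplet polymerase ribozyme were built by PCR and transcribed. Each library went through one round of in vitro selection in triplicate: annealing with biotinylated primer, partner subunit and triplets, frozen incubation at −7 °C, gel excision of extended constructs, streptavidin-bead capture and RT-PCR. Input and output libraries were Illumina-sequenced; only genotypes with ≥10 input reads and ≥1 read per output were kept. Fitness is log2(genotype enrichment/wild-type enrichment), using inverse-variance-weighted replicate averages.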

Variant	polymerase ribozyme fitness (log ratio)
C54U A66G G83C A98G	≤ -4.2
C54U A73G G83C A97G U134C G140A	≤ -4.2
C54U A73G G92U C96U C118G G141C	≤ -4.2
C54U A73U C87G	≤ -4.2
C54U A89C C131U	0.237
C54U A91C G92U C105U G133U	≤ -4.2
C54U A91U	≤ -4.2
C54U A97C	-0.294
C54U A107U U111G U135A U146C	-4
C54U A110U	≤ -4.2
C54U A121U	0.0158
C54U C57A C75G C87G	≤ -4.2
C54U C57A C87G G94C U130A	≤ -4.2
C54U C57A G68C G81U G83A A91C	≤ -4.2
C54U C57G C87A G128A	≤ -4.2
C54U C57G G74A C93U	≤ -4.2
C54U C57G G84U C85U C132U	-3.94
C54U C57U G100C	≤ -4.2
C54U C63A C149U	-1.67
C54U C63A G92A G128A U148G	≤ -4.2
C54U C63G G67C G143A	≤ -4.2

Variant	polymerase ribozyme fitness (log ratio)
C54U C69G G140A	≤ -4.2
C54U C69U C75U A107C A119C G141U	≤ -4.2
C54U C69U C85A A110C G143A	≤ -4.2
C54U C72G C99A	≤ -4.2
C54U C75A C96U	≤ -4.2
C54U C75G	-3.81
C54U C75G A110U A142G	≤ -4.2
C54U C75G G88C C123A A137G	≤ -4.2
C54U C76G C95U U101C	≤ -4.2
C54U C76U C87A A91C A98U C108G A115G U130A	≤ -4.2
C54U C76U C123A U139G U146C A150C	≤ -4.2
C54U C76U G94C G100U A119G G128U	≤ -4.2
C54U C79G C93U A98U C99A C105G C116U A142C U144C	≤ -4.2
C54U C85A	-2.3
C54U C85G C93U A97C A137U U139G	≤ -4.2
C54U C85G G94U G124A A137U	≤ -4.2
C54U C85U G88U A89U C99U C105G	≤ -4.2
C54U C87A C99U U109G G140C	≤ -4.2
C54U C87G C129G	≤ -4.2
C54U C87U	-1.08
C54U C93A A110G A137G G140C	-4.1

Variant	polymerase ribozyme fitness (log ratio)
C54U C93G U127A	≤ -4.2
C54U C93U C105G G126C	-2.01
C54U C95A A110C	≤ -4.2
C54U C96A A97G	-1.12
C54U C96A C105G G124U	-3.42
C54U C96G	-0.994
C54U C96U	-0.41
C54U C96U C103G C114U	≤ -4.2
C54U C96U U127C	≤ -4.2
C54U C99G G141U U151G	≤ -4.2
C54U C99U	-0.322
C54U C103A	-2.22
C54U C149A U151G	≤ -4.2
C54U G58A A64C G71A	≤ -4.2
C54U G58A G80A C96U G124A G143C	≤ -4.2
C54U G58C	-0.858
C54U G58C A137G U151G	≤ -4.2
C54U G58U A64C C85A A89C C114U	≤ -4.2
C54U G59A G70C	-2.48
C54U G59C A60U A66C	≤ -4.2
C54U G59C A66G C99A G140A A147C	≤ -4.2

Variant	polymerase ribozyme fitness (log ratio)
C54U G59C G83A G117U	-0.252
C54U G59C U77C C95A A113U	≤ -4.2
C54U G59U	0.271
C54U G59U G74A	-3.62
C54U G65U G81A C93U A97U	≤ -4.2
C54U G67A G74U C75U A97U U102G U139A	≤ -4.2
C54U G67C C69U C87U U101G	≤ -4.2
C54U G67C C93G U102C U134A U135A A142U	≤ -4.2
C54U G67C G94C U111A C129G	≤ -4.2
C54U G68A G84C C85G G124A	≤ -4.2
C54U G70A G92A	≤ -4.2
C54U G70C A91U A97C	≤ -4.2
C54U G70C C93U C116U C125A A138U G141U	≤ -4.2
C54U G71C C116U G136A U146C	-3.51
C54U G74C C76G C123U	≤ -4.2
C54U G81A C95U	-0.559
C54U G81A G86U C105A A147U	-4.16
C54U G83A G140U G143A	≤ -4.2
C54U G84A C105A	-0.565
C54U G84A U102G	-4.14
